Results on 79 compounds are retold here after article PMC12040169 (PLOS Biology, 2025).

The structures appear in SMILES notation. This is one part of the list.

The test system of the assay is T1, C. trachomatis L2/434/Bu expressing GFP (CTL2-GFP).
T1 construct: L2/434/Bu GFP intracellular growth in HeLa cells
Also on record: species or system HeLa; C. trachomatis total inclusion area by high-content imaging, normalised to DMSO. The settings on record: total inclusion area; 28.5 h, 10 µM; inhibitor. In a few lines: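 Bulk GFP and resorufin signals were read first. Wells were then fixed, stained with Hoechst and imaged to detect GFP inclusions and host nuclei. MICs followed the previously described calculation.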
Consider `N#CCCN(C(=O)Nc1ccc2[nH]ccc2c1)C1CCCCC1` [CBK156362], for which the “% of control remaining” value is reported as 90.0223.
Under `O=C1CC2(CCNCC2)Oc2c1ccc1ccccc21` [CBK282714] stands 49.9902; under `CCc1nc2ccc(C(=O)NCCN(C)C)cn2c1N(CC)CC(=O)N(C)C` [CBK146762], 97.9849; under `CC(=O)Nc1ccc(NC(=O)NCC2CCCO2)c(C(F)(F)F)c1` (stereo not shown) [CBK304150], 50.5075.
With `Cc1cc(NCc2ccc(C(C)C)cc2)c2ccccc2n1` [CBK122786], the “% of control remaining” value came out at 81.4234.
Under `O=C(Nc1ccccc1-c1ccccc1)C1CN(S(=O)(=O)c2ccccc2)CCN1S(=O)(=O)c1ccccc1` (stereo not shown) [CBK265902] stands 79.3386; under `CCc1c(SCC(=O)O)nc2ccccc2c1C` [CBK286928], 86.5524; under `COCCN(Cc1ccc(OC)cc1)c1c(C)nc2ccc(C(=O)Nc3ccc(NC(C)=O)cc3)cn12` [CBK146111], 93.6162.
Next, `COc1ccc(CN(CCN2CCOCC2)C(=O)Nc2cccnc2)cc1OC` [CBK159379]: 108.197; `Cc1ccn2cc(-c3ccc4c(c3)CCN4S(C)(=O)=O)nc2c1` [CBK285221]: 95.4007.
On to `Cc1cc(-c2ccc(=O)n(CCNC(=O)C3CC3)n2)c(C)o1` [CBK284521], for which the “% of control remaining” value is 74.2069.
Next, `CN(c1ccc(C(=O)Nc2ccc(S(=O)(=O)N3CCOCC3)cc2)cc1)S(=O)(=O)c1ccccc1` [CBK264129]: 78.163; `CCOC(=O)N1CCC(n2c(=O)[nH]c3ccccc32)CC1` [CBK149867]: 116.082; `COc1cccc(CNC(=O)Cn2nnc(-c3ccc(CN4CCC(C)CC4)cc3)n2)c1OC` [CBK144161C]: 100.845.
As for `O=C(COc1cccc(Br)c1)Nc1nnc[nH]1` [CBK264063], the “% of control remaining” value was found to be 98.1213.
Next, `O=C(NCCCn1ccnc1)c1ncoc1-c1ccccc1F` [CBK283917]: 98.38; `COc1ccc(-c2cncc(NCC3CCOCC3)n2)cc1` [CBK037285]: 73.5254; `N#Cc1sc(-c2ccc(F)cc2)cc1NC(=O)c1cccc([N+](=O)[O-])c1` [CBK066845]: 76.1039.
Next, `CN1CCN([C@H]2[C@@H]3OC[C@@H](O3)[C@@H](NCc3ccc(CO)o3)[C@@H]2O)CC1` [CBK288823]: 85.8618.
Next, `COc1cc(OC)nc(CN2CCOC3(CCN(C(=O)c4ccc5ccccc5c4)CC3)C2)n1` [CBK161121A]: 80.7134.
Consider `NNC(=O)COc1ccc(Cl)cc1Cl` [CBK261671], for which the “% of control remaining” value worked out at 103.646.
Take `Cc1ccc(S(=O)(=O)N/N=C/C=C/c2ccc(N(C)C)cc2)cc1` [CBK265078]: the “% of control remaining” value was 106.805.
Under `Cc1ccc(-c2nc3ccccc3c(=O)o2)cc1C` [CBK288137] stands 80.362.
Next, `CS(=O)(=O)N1CCC(C(=O)NC(c2ccccc2)c2ccccc2)CC1` [CBK269801]: 92.2562.
On to `Cc1cccc(-c2ncc(C(=O)NCCN3CCOCC3)cc2-c2ccc(O)cc2)c1` [CBK037435], for which the “% of control remaining” value was 126.75.
Under `Fc1ccccc1CSc1nnc(-c2cnccn2)n1Cc1ccco1` [CBK267556] stands 105.186.
Under `Cc1cc(N2C(=O)CC(N3CCC(C(=O)N4CCOCC4)CC3)C2=O)no1` (stereo not shown) [CBK269035] stands 78.994.
Next, `COc1ccc([C@@]23CC[C@H](NC(=O)c4[nH]cnc4C)C[C@@H]2N(C)CC3)cc1OC` [CBK038097]: 101.095; `Nc1ccc(-c2cn3ccnc3c(NCC3CC3)n2)cc1` [CBK066677]: 160.231; `CCN1C(=O)CC(N2CCN(c3cc(-c4ccc(OC)cc4)nc(C)n3)CC2)C1=O` (stereo not shown) [CBK269744]: 73.4282.
Turning to `CC1(C(F)(F)F)OC(NC2C3CC4CC(C3)CC2C4)=NC1=O` (stereo not shown) [CBK115312], the “% of control remaining” value is recorded as 88.2.
Regarding `Cc1cccc(C(=O)Nc2ncn(CC(=O)N3CCCCCC3)n2)n1` [CBK304954], the “% of control remaining” value was 74.1242.
With `Cn1ncc2c(SCc3cc4c(cc3Br)OCCO4)ncnc21` [CBK297732], the “% of control remaining” value is reported as 60.1948.
Next, `CN(C(=O)c1cccn1C)C1CCN(c2ncnc3ccccc23)CC1` [CBK306110]: 61.3822; `Cc1cc(-c2cc(=O)n(CCc3ccccc3)nc2-c2ccco2)on1` [CBK282879]: 95.7642; `O=C(O)/C=C/c1cn(-c2ccccc2)nc1-c1cccs1` [CBK263119]: 107.667.
With `COc1ccc(CN2CCCN(c3cc(OCC4COc5ccccc5O4)ncn3)CC2)cc1` (stereo not shown) [CBK083255T], the “% of control remaining” value was 31.3397.
Next, `COc1ccc(C(=O)C2=C(O)C(=O)N(CCCN(C)C)C2c2ccncc2)cc1Cl` (stereo not shown) [CBK266529]: 103.815.
Next, `Cc1noc(C)c1NC(=O)c1cncn1C` [CBK200396]: 64.3461; `OC(CN1CCNCC1)Cn1c2ccc(Cl)cc2c2cc(Cl)ccc21` (stereo not shown) [CBK094277G]: 8.949.
Under `COc1ccccc1-c1cc([C@H]2CN3CC[C@H]2C[C@@H]3CNC(=O)c2ccco2)nc(C)n1` [CBK289119] stands 110.458.
In the case of `COCC(=O)N1CCc2sccc2C1c1ccc(NC(=O)c2ccc(OC)cc2)cc1` (stereo not shown) [CBK286467], the “% of control remaining” value amounted to 73.8088.
Under `CS(=O)(=O)c1ccc(-c2ccc(C(=O)NCc3ccccc3)cn2)cc1` [CBK158885] stands 99.9057; under `COc1cc(NC(=O)NCC2CCN(CCOc3c(OC)cccc3OC)CC2)cc(OC)c1` [CBK051514], 110.898; under `CCC(=O)Nc1nnc(-c2ccc3c(c2)OCCO3)o1` [CBK287404], 98.2702.
Under `OCCN1CCN(c2nnc(-c3ccccc3)cc2-c2ccccc2)CC1` [CBK270045] stands 84.4227.
Under `CN1C[C@]2(CC[C@@H](C(=O)NC3CC3)CC2)Oc2ccccc2C1=O` [CBK282610] stands 109.105; under `CC(=O)NC1CCN(CC2(c3cccc(F)c3)CCCC2)CC1` [CBK282590], 124.672; under `Cc1cc(Br)ccc1-n1sc2ccccc2c1=O` [CBK116239], 76.6138.
For `Nc1ncc(-c2cccc(O)c2)nc1-c1ccc(C=O)cc1` [CBK064088], the “% of control remaining” value was determined as 68.711.
As for `O=C(CSc1nnc(-c2ccccc2Br)o1)c1ccc(F)cc1` [CBK068688], the “% of control remaining” value was determined as 116.435.
For the compound `CCNS(=O)(=O)c1ccc2c(c1)N(Cc1ccc(CO)o1)CC2` [CBK306158], the “% of control remaining” value turned out to be 86.0718.
As for `C=CCOc1nc2c(=O)[nH]c(NC(=O)C(C)C)nc2n1[C@H]1C[C@@H](O)[C@@H](CO)O1` [CBK201216], the “% of control remaining” value is 141.297.
Regarding `CCN1CCN(c2cc(N3CCN(C(=O)COc4ccccc4F)C(C)C3)c([N+](=O)[O-])cc2F)CC1` (stereo not shown) [CBK267513], the “% of control remaining” value is 95.8769.
Next, `CC1(C)CC(N(Cc2ccccc2)Cc2c[nH]cn2)CC(C)(C)N1` [CBK283196]: 92.8977.
Under `CSc1nsc(SCC(=O)c2ccc(Oc3ccccc3)cc2)n1` [CBK269104] stands 98.1454.
Under `Cc1cc(C)n(CC(=O)NCCCc2ccc(Cl)cc2)c(=O)n1` [CBK281561] stands 95.3205.
Turning to `O=C(C1CCCC1)N1C2CCC1CC(O)(c1cccnc1F)C2` (stereo not shown) [CBK284421], the “% of control remaining” value worked out at 46.7775.
Under `CC(=O)c1ccc(NC(=O)COn2nnc3ccc([N+](=O)[O-])cc32)cc1` [CBK266980] stands 90.4185; under `COc1cc(OC)nc(Oc2ccc(C(=O)O)cc2)n1` [CBK092222], 115.751.
As to `Cc1ccc2nc(SCc3cccc([N+](=O)[O-])c3)nc(C)c2c1` [CBK264370], the “% of control remaining” value amounted to 94.0702.
In the case of `O=C1NC[C@]2(CC[C@@H](C(=O)NC3CC3)CC2)Oc2ccc(Cl)cc21` [CBK284889], the “% of control remaining” value is on record as 91.6808.
Under `COc1cccc2c1cc(C(=O)NC1CCCN(C)C1)n2C` (stereo not shown) [CBK283266] stands 100.47; under `CCc1ccc(Oc2c(CC(=O)O)oc3cc(O)c(CC)cc3c2=O)cc1` [CBK266108], 64.4745.
Under `Cc1ccc2c(c1)c(C)c(C(=O)NCCn1ccc(C)n1)n2C` [CBK282609] stands 118.236.
Next, `COc1ccc(-c2cc(C(=O)OCC(=O)c3cccc4ccccc34)c3ccccc3n2)cc1` [CBK265513]: 70.4436.
As for `O=C(CCC(=O)Nc1ccc(F)cc1)N/N=C/c1ccc(O)cc1O` [CBK261766], the “% of control remaining” value is reported as 95.5356.
For the compound `CCOc1ccccc1NC(=O)CCCC(=O)O` [CBK275986], the “% of control remaining” value is recorded as 104.219.
With `O=C(c1nc2ccccc2s1)C1CCNCC1` [CBK285397], the “% of control remaining” value is reported as 82.0924.
Under `CSCCN1CCN(c2nccnc2OC2CCCCC2)CC1` [CBK082843T] stands 112.196.
As for `Cc1cc(S(=O)(=O)Nc2ccnn2C(C)C)ccc1F` [CBK283069], the “% of control remaining” value came to 81.6584.
Next, `Cc1ccc(CCNc2c([N+](=O)[O-])nn(-c3ccc4c(c3)OCCO4)[n+]2[O-])cc1` [CBK268225]: 61.0232; `O=C(O)c1ccc(N2C(=O)CC(N3CCC(Cc4ccccc4)CC3)C2=O)cc1` (stereo not shown) [CBK273484]: 107.061.
For the compound `NC(=O)c1cccc(-c2nc(-c3cccs3)cnc2N)c1` [CBK064117], the “% of control remaining” value is listed as 117.257.
Next, `O=C(CC(CN1CCN(Cc2cccnc2)CC1)C(=O)O)Nc1ccc(Cl)cc1` (stereo not shown) [CBK286853]: 115.763; `COc1ccc(S(=O)(=O)N2CCN(C(=O)c3ccc(C(C)(C)C)cc3)CC2)cc1` [CBK157251]: 54.6616; `O=C(O)C1C2CCC(O2)C1C(=O)N1CCN(Cc2ccc(Cl)cc2)CC1` (stereo not shown) [CBK286943]: 62.7799.
As to `Cc1sc2ncn(CC(=O)NCCc3c[nH]cn3)c(=O)c2c1C` [CBK304685], the “% of control remaining” value is reported as 89.631.
Next, `CCOC(=O)C1(C2CCCCC2)CCN(C(=O)CC2CCCCC2)CC1` [CBK136919]: 101.992.
